These results are taken from patent US20230212210A1 (priority 2020, published 2023).

For this experiment, the target named is T1, DC-SIGN (Homo sapiens, UniProt Q9NNX6).
T1 sequence (Q9NNX6 1-404): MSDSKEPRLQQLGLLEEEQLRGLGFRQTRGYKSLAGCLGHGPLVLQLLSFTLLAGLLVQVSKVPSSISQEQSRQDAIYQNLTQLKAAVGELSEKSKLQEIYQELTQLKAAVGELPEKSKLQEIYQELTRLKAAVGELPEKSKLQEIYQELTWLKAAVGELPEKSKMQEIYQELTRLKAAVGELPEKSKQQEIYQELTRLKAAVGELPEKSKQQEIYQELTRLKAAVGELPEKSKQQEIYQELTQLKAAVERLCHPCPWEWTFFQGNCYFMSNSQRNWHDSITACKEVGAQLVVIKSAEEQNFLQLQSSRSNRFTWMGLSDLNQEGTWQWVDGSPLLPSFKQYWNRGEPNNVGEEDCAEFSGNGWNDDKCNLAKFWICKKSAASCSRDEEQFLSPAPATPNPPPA
Briefly: Binding of DC-SIGN to an O-sugar chain chip. The settings on record: Cy3-labelled DC-SIGN. Here is the method: The O-sugar chain chip and HMO chip used in the present application were purchased from Nanjing Creative Biochip Co., Ltd.
1 mg/mL S1 subunit sample and 1 mg/mL DC-SIGN sample were respectively prepared. 100 μL of sample was added to 25 μL of labeling reaction solution at 5-fold diluted concentration (containing 130 mM NaHCO3 and 50 mM NaCl, pH=8.2-8.3), an appropriate volume of Cy3-Se (cyanine 3 succinimidyl ester, an N-hydroxysuccinimide activated anthocyanidin 3 fluorescent dye) fluorescent dye (10 mg of Cy3-Se/1 mL of dimethyl sulfoxide), 0.5 μL of fluorescent dye was correspondingly added to the S1 subunit sample, 0.9 μL of fluorescent dye was correspondingly added to the DC-SIGN sample, and the mixtures were slightly shaken to form uniform reaction solutions.
2) The reaction solutions were shaken on a shaker for 1 h.
3) Dialysis after labeling: 125 μL of each reaction solution was injected into a mini dialysis tubing.
4) The reaction solutions were respectively stirred 3 times in a dialysis buffer solution (300 mL×3) in the dark, and each stirring was performed for 1 h (after the last stirring, the reaction solutions were placed overnight).
Concentration of samples to be analyzed: the 2 samples were denoted as No. 1 and No. 2 samples, respectively. The No. 1 sample referred to the S1 subunit, and the No. 2 sample referred to DC-SIGN. The above No. 1 and No. 2 samples were subjected to serial dilution to form samples at different test concentrations.
Specific dilutions were as follows: at the first dilution, the samples were diluted to a concentration of 10 μg/mL (the volume of each sample was 250 μL); at the second dilution, the samples were subjected to 1-fold dilution to a concentration of 5 μg/mL (the volume of each sample was 250 μL); at the third dilution, the samples were subjected to 1-fold dilution to a concentration of 2.5 μg/mL (the volume of each sample was 250 μL); and at the forth dilution, the samples were subjected to 1-fold dilution to a concentration of 1.25 μg/mL (the volume of each sample was 250 μL).
The corresponding arrangement of the samples at different test concentrations on an 8-subarray microarray chip is shown in Table 3.
Fences for analysis were mounted on the chip. A blocking buffer solution was added to each subarray. For an 8-subarray chip (referring to a glass substrate with 8 printed sugar chain areas, which contain the same sugar chain and are used to detect 8 different samples at the same time), 200 μL of buffer solution added to each subarray.
The subarrays were sealed with a plastic film to prevent evaporation of the blocking buffer solution, and incubated on a rotary shaker (at 60 rpm) for 30 min.
The samples to be analyzed were added to each subarray immediately. For the 8-subarray chip, 200 μL of sample was added to each subarray. The sample solution should cover the entire area of each subarray without producing air bubbles in the sample solution.
The microarray chip was sealed with a plastic film to prevent evaporation of the sample solution, and covered with aluminum foil and incubated in the dark for 1 h (on a shaker at 80 rpm).
A washing buffer solution was added to each subarray. For the 8-subarray chip, 200 μL of buffer solution was added to each subarray. The microarray chip was sealed with a plastic film, and incubated on a shaker (at 80 rpm) for 5 min. The washing buffer solution was removed immediately by using a pipette, and the above steps were repeated.
After the washing buffer solution was completely removed, the fences for analysis were unmounted from the chip, the glass slide was immersed in a washing buffer solution, and the chip was incubated on a shaker (at 80 rpm) for 10 min.
The glass slide was immersed in deionized water, and the chip was incubated on a shaker (at 80 rpm) for 2 min.
Before data scanning, the chip was dried in a clean and dust-free environment.
FIG. 9 is a diagram of the binding of the DC-SIGN protein to the O-sugar chain chip. […]

As to `CC(=O)N[C@@H]1[C@@H](O[C@@H]2O[C@H](CO)[C@@H](O[C@@H]3O[C@H](CO)[C@H](O)[C@H](O)[C@H]3O[C@@H]3O[C@@H](C)[C@@H](O)[C@@H](O)[C@@H]3O)[C@H](O[C@@H]3O[C@@H](C)[C@@H](O)[C@@H](O)[C@@H]3O)[C@H]2NC(C)=O)[C@@H](O)[C@@H](CO)O[C@@H]1O` [O33, Fucα1-2Galβ1-4(Fucα1-3)GlcNAcβ1-3GalNAcα], the “Binding of DC-SIGN to an O-sugar chain chip, RFU” value (from here on “Binding of DC-SIGN”) worked out at 124.5 RFU.

Regarding “Fucα1-2Galβ1-4(Fucα1-3)GlcNAcβ1-3Galβ1-3GalNAcα [O20]”, the “Binding of DC-SIGN” value came to 135 RFU.

As to “Fucα1-2Galβ1-4(Fucα1-3)GlcNAcβ1-6GalNAcα [O46]”, the “Binding of DC-SIGN” value worked out at 65.83 RFU. “Galβ1-4(Fuca 1-3)GlcNAcβ1-3 GalNAcα [O32]”: the “Binding of DC-SIGN” value was 68.83 RFU. With “Galβ1-4(Fuca 1-3)GlcNAcβ1-3 GalNAcα [O44]”, the “Binding of DC-SIGN” value is reported as 69 RFU. For the compound “Galβ1-4(Fucα1-3)GlcNAcβ1-3Galβ1-3GalNAcα [O19]”, the “Binding of DC-SIGN” value amounted to 83.33 RFU.
